Test results from the RNAGym collection of RNA variant scans (doi:10.1093/nar/gkz1192).
Read counts are not given, so values of variants with three or more changes are uncertain.

B1: CPEB3 Ribozyme (parent)
chain: UAACAGGGGGCCACAGCAGAAGCGUUCACGUCGCAGCCCCUGUCAGAUUCUGGUGAAUCUGCGAAUUCUGCUGUAUAUCUC

Variants of: B1
Assay: self-cleavage, relative activity (ratio to wild type); higher = more cleavage; in vitro, sequencing
Summary of the method: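 Relative activity compares each variant's cleaved/total read fraction with that of the unmutated ribozyme. To get these fractions, barcoded CPEB3 ribozyme libraries from rounds of error-prone PCR were transcribed with T7 RNA polymerase for 5 hours at 37°C and then given 15 min of DNase I treatment before EDTA was added. The RNAs were reverse transcribed with template switching and sequenced on Illumina, and DNA sequencing linked barcodes to variants. A minimum of 5 reads applied, and three batches were averaged.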
For U51C G63A U67A, the self-cleavage was 0.75.
In the case of U51A U69G U80C, the self-cleavage is reported as 0.83.
U51C U54A U60C U67C C68G gave a self-cleavage of 0.22.
For C50U U54C A64U U69A, the self-cleavage was 0.38.
Work on U51A G63U A64C U76C yielded a self-cleavage of 0.19.
C50U U60C U66C U78C gave a self-cleavage of 0.13.
U51A U58C U72C gave a self-cleavage of 0.57.
U54C U58C U60C gave a self-cleavage of 0.17.
Variant U51C U69C U72A has a self-cleavage of 0.43.
With G55A A57G U78C the self-cleavage was 0.5.
Work on G52U A65U U78C yielded a self-cleavage of 0.17.
Variant U54C A65G G73A has a self-cleavage of 0.84.
Variant U51C U72C G73A has a self-cleavage of 1.29.
In the case of C50U U51G U67A, the self-cleavage is reported as 0.22.
For U51G U69A U72A, the self-cleavage was 0.37.
Variant U54A U58C A64G U76C has a self-cleavage of 0.4.
In the case of U51C C62A U67C, the self-cleavage is reported as 0.31.
U51A A56U A77G gave a self-cleavage of 0.36.
U54C U58C G70A U78C showed a self-cleavage of 0.58.
In the case of U54C A56G U76C, the self-cleavage is reported as 0.7.
U51C U60C U72C gave a self-cleavage of 0.32.
U54A A56G U72G gave a self-cleavage of 0.52.
U51G A64G U74C A75U showed a self-cleavage of 1.24.
For U51A U74A A75U, the self-cleavage was 1.26.
U51A U54C U69C gave a self-cleavage of 0.75.
In the case of U54C U76C U78C, the self-cleavage is reported as 1.05.
For U54A G55C G73A, the self-cleavage was 1.15.
Work on U51G U66C U72A U80C yielded a self-cleavage of 0.6.
Work on G53C A57G U80C yielded a self-cleavage of 0.81.
For U54C A65U U66C U67C U80C, the self-cleavage was 0.21.
Work on U51C A64G A65G G70A yielded a self-cleavage of 0.25.
U51G C62A A65G U66C gave a self-cleavage of 0.25.
For U51C A57U C62G, the self-cleavage was 0.2.
Work on U51A U72C C81A yielded a self-cleavage of 0.95.
In the case of U51A U54C C59U A64G U72C U80C, the self-cleavage is reported as 0.52.
For U51C U60A U72A A75G, the self-cleavage was 0.6.
G53A U60C A64G U67A U78C U80A gave a self-cleavage of 0.46.
For G52A U60C U80A, the self-cleavage was 1.
With U54C U69C C79A U80G the self-cleavage was 0.58.
Variant U54C U60A U76C has a self-cleavage of 0.33.
Work on U51G U54C A56U yielded a self-cleavage of 0.61.
With U54A C62U U66C the self-cleavage was 0.22.
G52A A77G U80A showed a self-cleavage of 1.07.
In the case of G52A U74A U80A, the self-cleavage is reported as 1.26.
With U54A U67C U78C U80C the self-cleavage was 0.39.
With U54C U72C U76A the self-cleavage was 1.21.
Variant G52U U60A U74C has a self-cleavage of 0.94.
For U51C A64U U80C, the self-cleavage was 0.53.
Work on U51G A64G U69C yielded a self-cleavage of 0.24.
With U54C A56G A77G the self-cleavage was 0.59.
With U51A U54A U80C the self-cleavage was 0.99.
In the case of U54C U66C U76C, the self-cleavage is reported as 0.64.
Variant U51G A57G U66C has a self-cleavage of 0.26.
Variant U54C U58A U80C has a self-cleavage of 0.26.
With U54A A56C U72A the self-cleavage was 0.62.
For U54C A56G G70A, the self-cleavage was 0.29.
U54A U69G U72C gave a self-cleavage of 0.5.
U54A U69C C81U gave a self-cleavage of 0.91.
For U51C A57G U80C, the self-cleavage was 0.99.
Variant G52C U54A U67C has a self-cleavage of 0.78.
Variant G52A A56G U80C has a self-cleavage of 1.15.
U54C C59U A65G showed a self-cleavage of 0.49.
U51C U60A A65G U78C showed a self-cleavage of 0.17.
Variant U51C U54C U60C U72A has a self-cleavage of 0.25.
For U54C U60A U72A, the self-cleavage was 0.35.
With G55C U60G A65G the self-cleavage was 0.3.
In the case of G55A A57U U78C, the self-cleavage is reported as 0.31.
Work on U51A A56G G61A G70A yielded a self-cleavage of 0.5.
Variant U54C A64G U76G has a self-cleavage of 0.85.
For G55A U66C U67C U80C, the self-cleavage was 0.28.
Work on U51C U60A U69C C81A yielded a self-cleavage of 0.35.
Work on C50U U54A U60C A64C U76C U78C yielded a self-cleavage of 0.14.
Variant U54A U69C U76A has a self-cleavage of 0.67.
U54A G63C U78A gave a self-cleavage of 1.02.
For U51A U66A U67C U80C, the self-cleavage was 0.32.
U54C U67C C68U showed a self-cleavage of 0.18.
U51A A56G U60C G70C showed a self-cleavage of 0.25.
Variant G55C A65U U67A has a self-cleavage of 0.21.
U51A A64U U78C gave a self-cleavage of 0.21.
Work on U54A A56G A57U U58C yielded a self-cleavage of 0.14.
U51A A56G A65U gave a self-cleavage of 0.11.
Work on U51A A57G G61A A65G yielded a self-cleavage of 0.21.
Work on U54C U66C U67A yielded a self-cleavage of 0.2.
U54C U58C U69A U78C gave a self-cleavage of 0.17.
For U51A G55U U67C U74C, the self-cleavage was 0.35.
U54C C62U U72C showed a self-cleavage of 0.17.
Variant U51C U69C U74A has a self-cleavage of 0.53.
With U54A U76C U80C the self-cleavage was 1.15.
Work on U51A U54C U58C A77G yielded a self-cleavage of 0.42.
Variant U51C A56G U80A has a self-cleavage of 1.04.
Variant U54C U60C U67A has a self-cleavage of 0.16.
U51C A57G A64G gave a self-cleavage of 0.74.
For U54C G55A A75U, the self-cleavage was 0.83.
For U51C A77C C79U, the self-cleavage was 1.13.
U51C U78C U80C gave a self-cleavage of 0.72.
Variant U51A A57G U60C U67C has a self-cleavage of 0.42.
Work on U51C U54C U60A U69C C79A yielded a self-cleavage of 0.46.
For U51A A56G A57U U69C, the self-cleavage was 0.18.
In the case of U54C A57G C68G A77G, the self-cleavage is reported as 0.09.
In the case of U51C A57G A64U U66C, the self-cleavage is reported as 0.14.
U54A U60C G63A U78C gave a self-cleavage of 0.39.
For U51A G53A U66C U72C, the self-cleavage was 0.72.
Variant U51C U60C C81U has a self-cleavage of 0.39.
Work on U51A U78C U80C yielded a self-cleavage of 0.7.
Variant G55A A64U U67C has a self-cleavage of 0.2.
With G53A A65G U72A U78A the self-cleavage was 0.38.
U54C G61A U66C U72C U74C gave a self-cleavage of 0.28.
With U51A G52U U58A U78C the self-cleavage was 0.67.
In the case of U51A A56G U69A, the self-cleavage is reported as 0.15.
In the case of U51C U58C U67A U78C, the self-cleavage is reported as 0.19.
Work on U51C A65G U72A yielded a self-cleavage of 0.51.
Variant U51C A65U U67C U74C U80A has a self-cleavage of 0.29.
In the case of U54C U60A U80C, the self-cleavage is reported as 0.36.
U51C G52C U58C U72C U74C gave a self-cleavage of 0.5.
For U51C U60A G63A U69A U72A U80A, the self-cleavage was 0.43.
Variant U51C G61C U72C has a self-cleavage of 0.41.
U51C A75U U78C gave a self-cleavage of 1.16.
U51C A56G U69G C71U gave a self-cleavage of 0.54.
For U51C A57G U69C U72A U80C, the self-cleavage was 0.75.
Work on U51A U58C U74C U78C yielded a self-cleavage of 0.61.
For G52C A57U U76C, the self-cleavage was 0.54.
Work on G52A U60C U76A yielded a self-cleavage of 0.87.
Work on U51C G52C U74C yielded a self-cleavage of 1.23.
With G53A A57G A77G the self-cleavage was 0.6.
Variant U51C G63A U69C U78A has a self-cleavage of 0.66.
In the case of G52A A57G U60A, the self-cleavage is reported as 0.37.
U51C U54A A64G gave a self-cleavage of 0.79.
U54A A65G U67A gave a self-cleavage of 0.26.
In the case of U54A U66C U67A, the self-cleavage is reported as 0.28.
U54A U66C U67C showed a self-cleavage of 0.55.
In the case of U54A U60C A64U, the self-cleavage is reported as 0.2.
U51G U78A C79G showed a self-cleavage of 1.26.
In the case of G53A U54G G73U, the self-cleavage is reported as 1.27.
In the case of U54C U58C G73A A75G, the self-cleavage is reported as 1.07.
U51C G53C U69A showed a self-cleavage of 0.5.
For U54C C59G A65G, the self-cleavage was 0.15.
In the case of U54C U58C A64G C68A U80C, the self-cleavage is reported as 0.13.
With U51C A57G U58A U60C U80C the self-cleavage was 0.24.
U51C U54C A56G U66C showed a self-cleavage of 0.37.
U51C U60C A77G showed a self-cleavage of 0.35.
In the case of U51C U60C A77C, the self-cleavage is reported as 0.3.
Work on U54C U58C U60C U74A yielded a self-cleavage of 0.24.
G52A A56G U60A U69C showed a self-cleavage of 0.26.
Work on U54A A64G U76C yielded a self-cleavage of 1.11.
In the case of G53A A64G A65G, the self-cleavage is reported as 0.18.
G55A A56U U69A showed a self-cleavage of 0.35.
U54C A65C U67C U76C showed a self-cleavage of 0.12.
With G52U A64G A77G the self-cleavage was 0.88.
U51A U54C U58C gave a self-cleavage of 0.61.
For U51C U58A A77G, the self-cleavage was 0.21.
For U51G A57G U72A, the self-cleavage was 0.62.
U54C A56G C68U U74A showed a self-cleavage of 0.68.
U51C A77G U78C gave a self-cleavage of 0.75.
With U54G A64G U69C A77G the self-cleavage was 0.21.
U54A C62U A65G U80A showed a self-cleavage of 0.18.
U51C A56G U67C U72C U74C showed a self-cleavage of 0.46.
Work on G52A U66A U80A yielded a self-cleavage of 0.41.
U51A A56U U74A U78A showed a self-cleavage of 1.1.
With U51G A75G U80C the self-cleavage was 0.53.
For U51A A56G U58G, the self-cleavage was 0.22.
Variant U54C G63A U76C has a self-cleavage of 0.77.
In the case of U54C U58C U60A U69A U76C, the self-cleavage is reported as 0.23.
Work on G53A U58C U72C A75U yielded a self-cleavage of 1.1.
Variant G55A A56G U74G has a self-cleavage of 1.07.
Work on U51A U69A U72C yielded a self-cleavage of 0.48.
With U51C A65U U80A the self-cleavage was 0.32.
Work on G53A U76A U80C yielded a self-cleavage of 1.12.
